Scores with a large standard error are left out. Not listed are two conditions whose scores span a narrow range. Names with del lack the residues named; names with ins carry added residues between the positions named. For part of these data: The concentration of ogerin is not given here.
B1: GPR68, Q15743 (parent)
chain: MGNITADNSSMSCTIDHTIHQTLAPVVYVTVLVVGFPANCLSLYFGYLQIKARNELGVYLCNLTVADLFYICSLPFWLQYVLQHDNWSHGDLSCQVCGILLYENIYISVGFLCCISVDRYLAVAHPFRFHQFRTLKAAVGVSVVIWAKELLTSIYFLMHEEVIEDENQHRVCFEHYPIQAWQRAINYYRFLVGFLFPICLLLASYQGILRAVRRSHGTQKSRKDQIQRLVLSTVVIFLACFLPYHVLLLVRSVWEASCDFAKGVFNAYHFSLLLTSFNCVADPVLYCFVSETTHRDLARLRGACLAFLTCSRTGRAREAYPLGAPEASGKSGAQGEEPELLTKLHPAFQTPNSPGSGGFPTGRLA

Legend:
[1] = variants of: B1; assay: cAMP reporter score (Enrich2 score, wild type = 0); higher = more signal; HEK293T, FACS bins
[2] = variants of: B1; assay: surface expression score (Enrich2 score, wild type = 0); higher = more signal; HEK293T, FACS bins

Variant	cAMP reporter score ([1]; pH 5.5)	cAMP reporter score ([1]; pH 6)	cAMP reporter score ([1]; pH 6, modulator: ogerin)	cAMP reporter score ([1]; pH 6.5, modulator: ogerin)	surface expression score [2]
H159_E161del	-1.6	-1.29	-1.89	-1.52	0.392
W146I	-0.546	-1.43	-1.65	-0.618	-1.89
W146Q	-1.33	-0.535	-0.648	-0.433	–
W146G	-1.17	-1.36	-2.5	-1.09	-1.62
W146V	-1.19	-0.557	-0.748	–	–
W146P	-2.59	-0.899	–	-0.562	-2.32
W146T	-0.405	-0.623	-1.39	-0.392	-1.28
W146C	-1.45	-1.18	-2.06	-1.18	-2.34
W146F	-1.13	–	-1.78	-1.16	-2.29
W146L	-0.196	–	-1.12	-1.47	–
W146H	-0.872	-0.985	–	-0.774	–
W146K	-1.22	–	-2.43	-2.15	-3.65
W146R	-0.898	-0.49	-0.822	-0.554	-0.541
W146N	-1.15	–	-3.01	-0.424	-1.69
I145V	-0.691	-0.621	-0.555	-0.746	-1.18
I145Y	-1.39	-1.4	-1.19	-0.352	-1.75
I145L	1.47	-0.777	-0.604	-0.894	-1.56
I145E	-0.016	-0.565	–	–	–

Variant	cAMP reporter score ([1]; pH 5.5)	cAMP reporter score ([1]; pH 6)	cAMP reporter score ([1]; pH 6, modulator: ogerin)	cAMP reporter score ([1]; pH 6.5, modulator: ogerin)	surface expression score [2]
I145G	-1.66	-1.42	–	-0.973	-2.21
I145K	-0.848	-0.629	-1.95	-1.31	-2.29
I145H	-1.35	-0.912	-2.12	-1.29	-1.91
I145R	-0.423	–	–	–	-2.19
I145P	0.246	–	–	-1.66	-2.89
I145A	-2.38	–	-0.668	0.188	-1.86
I145W	-1.18	-1.4	-0.909	-0.667	-2.14
I145D	-0.954	-0.98	-0.532	-0.184	-2.94
I145F	-0.817	-0.075	-1.25	-0.467	-2.41
I145Q	-0.502	-0.545	-1.16	-1.27	-1.75
I145T	-0.6	–	-2.52	-1.17	-1.13
I145M	-0.06	1.03	-0.171	-0.687	-2.63
I145C	-0.452	-3.02	–	–	-3.03
I145S	-0.139	–	–	-1.32	-0.43
I145N	-0.537	–	–	-0.206	-2.08
E160_E161insGSG	-1.27	-1.73	-1.41	-1.44	-0.352
E161_I163del	-0.587	-0.801	-1.65	-0.565	2.51

— the GPR68 mutational scans of Howard et al. (2025)
